Over roughly 110,000 compounds, “z-score” has its median near -0.1; the highest 2% begin near 2. This is one part of the list.
target: Metabotropic glutamate receptor 8 (Rattus norvegicus) (UniProt P70579); experiment: rat mGluR8 modulators via GIRK flux, primary screen, cell-based, thallium flux, HTS (AID 488969); conditions: HEK293 rat mGluR8, GIRK (G protein-gated inwardly rectifying potassium channel) thallium flux, FluoZin2; at 10 µM; stronger effect = higher value; submaximal glutamate (EC20) added with thallium
Chain of UniProt P70579 (P70579 whole entry, looked up): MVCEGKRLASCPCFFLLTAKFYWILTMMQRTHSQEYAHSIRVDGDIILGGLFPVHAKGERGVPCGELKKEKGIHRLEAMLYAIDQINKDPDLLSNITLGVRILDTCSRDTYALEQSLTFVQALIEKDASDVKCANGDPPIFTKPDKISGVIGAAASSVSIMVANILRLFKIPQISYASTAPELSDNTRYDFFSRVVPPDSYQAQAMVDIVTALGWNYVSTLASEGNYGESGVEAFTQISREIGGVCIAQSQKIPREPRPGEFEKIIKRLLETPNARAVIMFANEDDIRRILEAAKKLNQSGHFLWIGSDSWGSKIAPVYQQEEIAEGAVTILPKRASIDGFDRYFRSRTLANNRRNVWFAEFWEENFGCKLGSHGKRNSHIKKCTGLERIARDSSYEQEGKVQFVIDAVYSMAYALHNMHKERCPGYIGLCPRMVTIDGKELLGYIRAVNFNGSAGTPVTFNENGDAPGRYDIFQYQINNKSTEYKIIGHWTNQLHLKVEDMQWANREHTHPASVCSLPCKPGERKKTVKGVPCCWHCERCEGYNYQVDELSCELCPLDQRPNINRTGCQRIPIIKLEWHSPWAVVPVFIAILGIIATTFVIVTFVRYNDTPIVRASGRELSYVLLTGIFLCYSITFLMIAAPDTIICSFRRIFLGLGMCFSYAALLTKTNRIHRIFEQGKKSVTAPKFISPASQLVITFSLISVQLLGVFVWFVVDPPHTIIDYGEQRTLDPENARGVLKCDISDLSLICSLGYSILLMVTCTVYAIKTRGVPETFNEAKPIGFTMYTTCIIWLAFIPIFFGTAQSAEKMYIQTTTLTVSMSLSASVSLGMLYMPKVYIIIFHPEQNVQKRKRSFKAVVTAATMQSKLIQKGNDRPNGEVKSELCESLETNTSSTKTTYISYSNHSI

Compound	z-score
Oc1ccc2ccccc2c1CN1CCN(c2ccccc2F)CC1	0.0406
COC(=O)c1sccc1NC(=O)c1cc(OC)cc(OC)c1	-0.12
COc1cccc(/C(O)=C2/C(=O)C(=O)N(CCCN3CCOCC3)C2c2ccncc2)c1 (configuration not stated)	-0.281
O=C(OCC(=O)N(C1CCCCC1)C1CCCCC1)c1ccco1	-0.337
O=C(NCc1cccnc1)c1cc2ccccc2oc1=O	-0.0878
Cn1c(=O)c2c(O)cc(=O)[nH]c2n(-c2ccccc2)c1=O	-0.00781
Cc1ccc(OCCN2C(=O)c3ccccc3C2=O)cc1	0.0165
COc1cccc(NC(=O)C2C3CC4OC(=O)C2C4C3)c1 (configuration not stated)	0.525
Cc1ccc(CC(=O)Nc2nc3ccccc3[nH]2)cc1C	0.207
Cc1ccc(S(=O)(=O)N2CCOCC2)cc1C(=O)OCC(=O)N1c2ccccc2NC(=O)C1(C)C	0.0833
CCC1CCCCN1C(=O)CSc1nc(N)c(NC(=O)c2ccc(OC)c(OC)c2)c(=O)[nH]1 (configuration not stated)	0.193
COc1ccc(NC(=O)CC2Oc3ccc(C)cc3NC2=O)cc1 (configuration not stated)	-0.732
CCc1ccc(N2CC(C(=O)NC3=NCCS3)CC2=O)cc1 (configuration not stated)	-0.0561
CCC(C)NC(=O)CSc1nc2ccsc2c(=O)n1-c1ccc(OC)cc1 (configuration not stated)	-0.11
CCOC(=O)Cn1nnc(-c2ccc(OCC(C)C)cc2)n1	-0.396
CCOc1ccc(C(=O)N(CN2CCCC2=O)c2ccc(C)cc2)cc1	-0.477
CCCNC(=O)NC(=O)COc1ccc2oc3ccccc3c2c1	0.316
CC1(C)CC(=O)C=C(NC2CCCCCC2)C1	1.16
CCN(CC)C(=O)C1=C(C)NC(=S)NC1c1cn(-c2ccccc2)nc1-c1ccc(Cl)cc1 (configuration not stated)	-0.197
Cc1ccc(O)c(CNn2cnnc2)c1	0.684
O=C(c1ccccc1)c1cccn1CC(=O)N1CCN(c2ccc(F)cc2)CC1	-0.25
O=C(CCNS(=O)(=O)c1cccc2nsnc12)N1CCN(c2ccccn2)CC1	0.415

Compound	z-score
CCOc1cc(NS(=O)(=O)c2ccc(Cl)cc2)c(OCC)cc1NC(=O)CC(C)C	-0.554
COc1ccc(S(=O)(=O)Nc2ccc(Oc3ncccn3)c(Cl)c2)cc1	-0.553
Cc1nn(-c2ccccc2)c(C)c1/C=C/C(=O)OCC(=O)Nc1ncc(Cl)cc1Cl	-0.544
Cc1cccc(NC(=O)CSc2nnc(Cn3nnc(-c4ccccc4)n3)n2-c2ccccc2)c1	1.13
Cc1cccc(-n2[nH]c3c4c(ccc3c2=O)C(=O)c2ccccc2C4=O)c1	-0.425
Cn1c(=O)c(-c2ccccc2)nn2c3ccccc3nc12	-0.291
CS(=O)(=O)N(CC(=O)NCc1ccccc1)C1CCCCC1	0.925
C=CCn1c(Cn2nnc3ccccc32)nnc1SCC(=O)N/N=C/c1cc(Br)cc(OC)c1O	-0.21
CCCCC(C(=O)O)C(C)CC(=O)Nc1ccn(-c2ccccc2)n1 (configuration not stated)	-0.321
COc1ccc(CCNC(=O)CSc2nnnn2-c2ccccc2OC)cc1OC	0.275
Nc1nc(SCC(=O)Nc2ccccc2)[nH]c(=O)c1-c1ccccc1	-0.306
CC(=O)Oc1ccc(Cn2cnc3cc4ccccc4cc32)cc1	-0.0735
Cc1nc(SCC(=O)NC2CCCC2)[nH]c(=O)c1Cc1ccccc1	0.0283
FC(F)(F)c1cccc(NC(=S)NCC(c2cccnc2)N2CCOCC2)c1 (configuration not stated)	0.278
CCn1c(C)cc(=S)c2ccccc21	0.166
COc1ccc(-c2cn3cccnc3n2)cc1NC(=O)c1cccs1	-0.211
COCCNc1nc2ccccc2nc1NS(=O)(=O)c1ccc(C)cc1C	0.068
Cc1ccc(OCC(=O)Nc2sc3c(c2C#N)CCC3)cc1C	-0.0369
CC(C)CC(C(=O)OCC(=O)Nc1cccc(Cl)c1)N1C(=O)C2CC=CCC2C1=O (configuration not stated)	0.307
CC(C)Oc1ccc(C2CC(=O)N(c3ccc(N(C)C)cc3)C2=O)cc1 (configuration not stated)	-0.0638
Cc1sc(N/N=C/c2cccnc2)nc1-c1ccccc1	0.388
COc1ccccc1CNC(=O)C1CCN(C(=O)N(C)C)CC1	-0.211

Compound	z-score
CC(=O)Nc1ccc(Nc2ncnc3c2cnn3-c2ccc(C)cc2C)cc1	-0.117
COc1ccc(S(=O)(=O)N(Cc2ccccc2)Cc2nc(-c3ccccc3)no2)cc1	-0.896
CCNC(=S)N/N=C/c1ccc(OCCOc2ccccc2C)cc1	0.162
C=CCOc1c2ccc(C(=O)NCc3ccccc3OC)cc2nn1C	-0.142
Cc1noc(/C=C/N(C)C)c1S(=O)(=O)N1CCCC(C(=O)NCc2cccs2)C1 (configuration not stated)	-0.27
CCC(=O)NC(Nc1cc(C)cc(C)n1)(C(F)(F)F)C(F)(F)F	1.57
O=C(c1ccccc1)N1CCN(c2ccc([N+](=O)[O-])c(N3CCOCC3)c2)CC1	-0.439
COc1ccc(NC(=O)CCc2nc(-c3ccccc3F)no2)cc1	-0.134
CCCc1c(C)c2ccccc2[nH]c1=O	-0.333
Cc1cccc(Sc2ccc([N+](=O)[O-])cn2)c1	-1.63
O=C(c1ccccc1-c1nc(-c2ccccc2)no1)N1CCCC1	0.545
COc1ccc(S(=O)(=O)N2CCN(c3ccc(C)cc3C)CC2)cc1OC	-0.11
CCOc1ccc(C(=O)/C=C/c2ccccc2C(F)(F)F)cc1	-0.354
CC1Cc2ccccc2N1CC(=O)c1c(N)n(Cc2ccccc2)c(=O)n(C)c1=O (configuration not stated)	-0.314
O=C(CSc1nnc(-c2ccc(F)cc2)o1)Nc1ccc(S(=O)(=O)N2CCCC2)cc1	-0.39
COCc1c(C(=O)OC)nnn1-c1ccccc1	0.737
O=C(NCC(=O)N(c1ccc2c(c1)OCCO2)C(C(=O)NC1CCCC1)c1ccco1)c1ccco1 (configuration not stated)	-0.259
CCOc1ccc2nc(NS(=O)(=O)c3ccc4c(c3)n(C)c(=O)n4C)sc2c1	0.623
COc1ccc2c(c1)CCCC21NC(=O)N(CC(N)=O)C1=O (configuration not stated)	-0.189
Nc1nnc(CCOc2ccccc2Cl)s1	-0.0619
O=C(CSC1=Nc2ccccc2C2=NC(Cc3c[nH]c4ccccc34)C(=O)N12)NC1CCCCC1 (configuration not stated)	-0.234
O=C(CN(Cc1cccs1)S(=O)(=O)c1ccc(S(=O)(=O)NC2CCCCC2)cc1)Nc1ccccc1	-0.107

Compound	z-score
O=C(NCc1ccc2c(c1)OCO2)c1cccc(F)c1	-1.05
CC(C)NC(=O)C1CCCN(S(=O)(=O)c2ccc(-n3cnnn3)cc2)C1 (configuration not stated)	0.0412
CCCCn1c(=O)c(CCC(=O)OC(C)C(=O)Nc2cccc(Cl)c2Cl)nc2ccccc21 (configuration not stated)	-0.172
Oc1cccc(NC(=S)Nc2ccc(SC(F)F)cc2)c1	2.92
O=c1ccc(-c2ccccc2)n[nH]1	0.467
CCCCNC(=O)CNC(=S)N(CCCN1CCOCC1)Cc1cccs1	-0.324
C=CCn1c(CCNC(=O)c2cccs2)nnc1SCC(=O)c1ccc(Br)cc1	1.79
COc1ccc(OC)c(S(=O)(=O)N2CCC(C(=O)NCC3CCCO3)CC2)c1 (configuration not stated)	-0.246
CCOc1ccc(C(=O)Nc2cccc(NC(=O)c3cccs3)c2)cc1[N+](=O)[O-]	-0.175
COc1ccc(C(=O)NCC(=O)Nc2ccc(F)cc2)cc1OC	-0.158
COc1cc2c(cc1NC(=O)C(C)Sc1cccc[n+]1[O-])oc1ccccc12 (configuration not stated)	-1.1
COC(=O)CN1C(c2cccc(Cl)c2)=Nc2ccc(Cl)cc2C1c1ccccc1 (configuration not stated)	-0.337
COc1ccc(OC)c(NC(=O)CSc2ccccc2)c1	-0.169
OC(CSc1c(Cl)cccc1Cl)CN1CCN(c2ccc(F)cc2)CC1 (configuration not stated)	-0.688
COC(=O)N1CCN(c2ccc(C(C)=O)cc2)CC1	-0.0754
Cc1ccc(C)c2[nH]c(=O)c(CN(Cc3ccco3)C(=O)Nc3ccccc3)cc12	-0.38
CC(=O)Nc1ccc(NC(=O)CN(c2cccc(C)c2)S(C)(=O)=O)cc1	-1.56
CCOc1ccccc1C(=O)Nc1cc(OC)ccc1OC	-0.561
COc1ccc(NC(=O)C2CCCCN2S(=O)(=O)c2ccc(F)cc2)c(OC)c1 (configuration not stated)	1.02
CCCCSc1nc(C)cc(C)c1S(=O)(=O)c1ccccc1C	-0.318
O=C(c1ccccc1)c1ncc(C(F)(F)F)cc1Cl	0.575
CCC(C)(C(=O)NC1CCCCC1)N(C(=O)CNC(C)=O)c1c(C)n(C)n(-c2ccccc2)c1=O (configuration not stated)	0.0496

Compound	z-score
Cc1cc(C(F)(F)F)nn1CC(=O)N(C)C1CCCCC1	0.278
COc1ccccc1-c1ccc(=O)n(CC(=O)NCc2ccc3c(c2)OCO3)n1	0.0292
CCOC(=O)c1c(N2CCCCC2)c2ccccc2[nH]c1=O	0.155
CCN1CCN(Cc2c(O)ccc3c(=O)c(-c4ccccc4OC)coc23)CC1	-0.589
C/C(=N\Nc1ccc(S(=O)(=O)Nc2ccc(Cl)cc2)cc1[N+](=O)[O-])c1ccc(N2CCOCC2)cc1	-0.0536
O=C(Nc1c(C(=O)Nc2ccc3c(c2)OCCO3)cnn1-c1ccccc1Cl)c1ccco1	-0.203
Nc1nc(/C=C/c2ccc(F)cc2)nc(-c2ccccc2O)n1	-0.255
O=C(CSc1nnc(CNc2ccc(F)cc2)n1Cc1ccccc1)NCc1ccccc1	-0.225
Cn1cccc1Cc1nnc(SCC(=O)N2CCCCCC2)n1-c1ccc(F)cc1	2.24
CN1CCN(C(=O)c2ccccc2N(Cc2ccccc2)S(=O)(=O)c2ccccc2)CC1	-0.185
CC(C)(C)C(=O)Nc1cccc(C(=O)c2cccc(NC(=O)C(C)(C)C)c2)c1	-0.249
N#Cc1ccc(-c2ccc(OCC(=O)NCC(=O)Nc3ccc(F)c(F)c3F)cc2)cc1	0.143
CN1C(CC(=O)c2ccccc2)CCCC1CC(O)c1ccccc1 (configuration not stated)	0.207
CCOc1ccc(S(=O)(=O)NCCC(=O)OCN2C(=O)c3ccccc3C2=O)cc1	-1.07
CCOC(=O)Cc1csc(SCC(=O)NC2CCCC(C)C2C)n1 (configuration not stated)	-0.038
CCOC(=O)c1cc2c(ccn2-c2ccc(F)cc2)n1CC(=O)N1CCN(C(=O)c2ccco2)CC1	1.02
COc1ccc(NC2=NCC(=O)N2c2ccccc2F)cc1	-0.144
COC(=O)c1cc2n(n1)CCN(Cc1ccc(F)cc1)C2=O	0.099
COc1ccccc1NC(=O)CSc1nnc(-c2ccc(NC(C)=O)cc2)n1C	1.33
